In paper PMC8034648, “Oligomeric complexes formed by Redβ single strand annealing protein in its different DNA bound states”:
Entries with a single value are a further part of the results.

Assays:
[1] = molecular target: Redβ single strand annealing protein from bacteriophage λ (bacteriophage λ) (UniProt P03698); assay: AUC; sedimentation velocity, Redβ with dT38:dA38 annealed duplex, complex purified by gel filtration; PBS, 20°C, 20 000 rpm; 8.3, 16.6 and 34 μM; A280 and FI optics; c(s) model (Table 2) and g(s*) model; n assumes one copy of dT38:dA38
[2] = molecular target: Redβ single strand annealing protein from bacteriophage λ (bacteriophage λ) (UniProt P03698); assay: AUC; sedimentation velocity, Redβ with dT38 ssDNA, complex purified by gel filtration; PBS, 20°C, 20 000 rpm; 8.3, 16.6 and 34 μM; A280 and FI optics; c(s) model (Table 2) and g(s*) model; n assumes one copy of dT38

## Redβ single strand annealing protein from bacteriophage λ (from UniProt P03698 1-261) (natural protein)
[1]; 8.3 μM, A280 optics
  stoichiometry N: 11.5 subunits
[1]; 8.3 μM, FI optics
  stoichiometry N: 12.9 subunits
[1]; 16.6 μM, A280 optics
  stoichiometry N: 12.3 subunits
[1]; 16.6 μM, FI optics
  stoichiometry N: 14.1 subunits
[1]; 34 μM, A280 optics
  stoichiometry N: 12.1 subunits
[1]; 34 μM, FI optics
  stoichiometry N: 14.9 subunits
[2]; 8.3 μM, A280 optics
  stoichiometry N: 12.5 subunits
[2]; 8.3 μM, FI optics
  stoichiometry N: 12.4 subunits
[2]; 16.6 μM, A280 optics
  stoichiometry N: 12 subunits
[2]; 16.6 μM, FI optics
  stoichiometry N: 14.2 subunits
[2]; 34 μM, A280 optics
  stoichiometry N: 13.1 subunits
[2]; 34 μM, FI optics
  stoichiometry N: 15.5 subunits
